Results: the supplement of paper PMC3334620
The full ranking holds about 33,000 sequences; the median of “E-score (-0.5 to 0.5)” is about -0.021, and the highest 2% start at about 0.32. Some of the results follow.

Each sequence was assayed against T1, Zap1 (UniProt P47043) (assay: PBM E-score (8-mer binding enrichment) (E-score (-0.5 to 0.5)); higher = stronger / more preferred TF binding; most listed sequences are background and not binding sites). Details: protein concentration: 200 nM; construct: GST-full length.
T1 sequence: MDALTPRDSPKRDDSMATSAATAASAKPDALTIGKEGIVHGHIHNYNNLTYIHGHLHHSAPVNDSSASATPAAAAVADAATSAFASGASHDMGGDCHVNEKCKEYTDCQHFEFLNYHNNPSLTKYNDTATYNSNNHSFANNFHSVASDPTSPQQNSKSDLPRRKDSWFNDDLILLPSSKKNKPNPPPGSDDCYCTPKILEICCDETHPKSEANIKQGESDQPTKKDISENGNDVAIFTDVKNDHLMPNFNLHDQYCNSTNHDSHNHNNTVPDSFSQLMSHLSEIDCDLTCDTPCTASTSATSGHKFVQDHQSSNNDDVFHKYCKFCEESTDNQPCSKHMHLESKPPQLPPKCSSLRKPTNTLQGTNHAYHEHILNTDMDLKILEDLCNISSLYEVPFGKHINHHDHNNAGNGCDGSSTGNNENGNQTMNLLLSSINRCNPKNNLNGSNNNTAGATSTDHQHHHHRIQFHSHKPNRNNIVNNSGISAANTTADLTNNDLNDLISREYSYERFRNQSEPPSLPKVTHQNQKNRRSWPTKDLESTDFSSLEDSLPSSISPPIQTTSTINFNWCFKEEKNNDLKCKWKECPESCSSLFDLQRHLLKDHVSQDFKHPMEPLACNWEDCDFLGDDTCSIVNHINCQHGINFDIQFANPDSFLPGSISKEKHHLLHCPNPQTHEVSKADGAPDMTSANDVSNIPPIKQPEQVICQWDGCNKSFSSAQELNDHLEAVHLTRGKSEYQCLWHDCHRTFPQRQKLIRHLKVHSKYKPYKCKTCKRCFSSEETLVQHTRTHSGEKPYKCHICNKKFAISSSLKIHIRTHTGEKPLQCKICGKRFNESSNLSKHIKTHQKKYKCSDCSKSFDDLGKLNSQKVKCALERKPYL
Method: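 Universal 'all 10-mer' protein binding microarrays (Agilent AMADID 015681) probed with GST-tagged S. cerevisiae TFs (full-length or DBD) made by in vitro transcription/translation (PURExpress), about 100-200 nM. Bound TF was detected with fluorescent anti-GST. Each ungapped 8-mer (which stands for itself and its reverse complement) is scored by the PBM enrichment score (E-score), a modified Wilcoxon-Mann-Whitney statistic from -0.5 to +0.5, computed with the Universal PBM Analysis Suite. Scale: above 0.35 generally sequence-specific binding.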

First: ATCATAGC
Second: GAACACGC
The “PBM E-score” value of the first is lower: -0.0819 for the first, -0.0693 for the second.

Compared with CTGCTGAC, CTAATCTA is lower in “PBM E-score” value: 0.0872 for the first, -0.13 for the second.

First: GTCAGATA
Second: ACGCTCAC
The “PBM E-score” value of the first is higher: -0.00942 for the first, -0.0884 for the second.

Compared with CTGATTGC, GATACAGC is lower in “PBM E-score” value: -0.0621 for the first, -0.107 for the second.

Compared with TCTTAAGA, ATATCTAA is higher in “PBM E-score” value: 0.00469 for the first, 0.0975 for the second.

Going from AAATCGGG to CTCGGAGA, the “PBM E-score” value falls from 0.14 to -0.152.

Going from CTCCAATC to GCCCAACC, the “PBM E-score” value rises from -0.18 to -0.0373.

Compared with CAGACACG, ATATTGTC is higher in “PBM E-score” value: -0.165 for the first, 0.0751 for the second.

Compared with AAGAGCCT, ATGCTAAG is higher in “PBM E-score” value: -0.219 for the first, 0.0592 for the second.

Compared with AACGTGTG, ACGCACTC is lower in “PBM E-score” value: -0.143 for the first, -0.149 for the second.

First: AAACTTGA
Second: AGTAGCAT
The “PBM E-score” value of the first is higher: -0.124 for the first, -0.201 for the second.

Compared with AAGACTCA, AGTTGCAA is higher in “PBM E-score” value: -0.249 for the first, 0.00202 for the second.

Compared with GCCCCCCA, ACTTTTCT is higher in “PBM E-score” value: -0.337 for the first, 0.114 for the second.

First: ATGCTGCA
Second: CACACAAC
The “PBM E-score” value of the first is lower: -0.0887 for the first, -0.00717 for the second.

Compared with ACTGCCGA, GCTACAGC is higher in “PBM E-score” value: -0.119 for the first, 0.0329 for the second.

Going from GATTGGCC to AAACAGTT, the “PBM E-score” value rises from -0.132 to -0.0683.

First: TGTAAGAA
Second: CAATCACG
The “PBM E-score” value of the first is higher: 0.11 for the first, -0.157 for the second.

Going from TAACTAGA to AATAATGG, the “PBM E-score” value falls from 0.227 to 0.155.

Compared with GGTAGATA, CGGTTATC is higher in “PBM E-score” value: 0.131 for the first, 0.424 for the second.

Compared with ATAAACAG, ACTGAATA is lower in “PBM E-score” value: 0.103 for the first, -0.0283 for the second.

First: AACCCGCT
Second: AACGACTA
The “PBM E-score” value of the first is higher: 0.161 for the first, -0.018 for the second.

Compared with AGAGACCA, CTTAGGTA is higher in “PBM E-score” value: 0.121 for the first, 0.136 for the second.

Compared with TCCGGCAA, CGAGGTAA is higher in “PBM E-score” value: -0.116 for the first, 0.285 for the second.

Compared with GGCGTAAC, AAATACTT is lower in “PBM E-score” value: 0.0681 for the first, -0.154 for the second.

Compared with ATGATACA, ACATACGC is lower in “PBM E-score” value: 0.228 for the first, -0.0732 for the second.

Going from GTATTCAC to TCTCGTAA, the “PBM E-score” value falls from 0.12 to 0.0724.

First: CCCAGTCG
Second: AAACGTAC
The “PBM E-score” value of the first is lower: -0.279 for the first, -0.139 for the second.

Compared with ATGCTACG, AATTTCTG is higher in “PBM E-score” value: -0.141 for the first, 0.00193 for the second.

Compared with AAATTTAA, GAGCATAA is lower in “PBM E-score” value: 0.272 for the first, 0.144 for the second.

Compared with GTTCTGCA, ATACGTAG is lower in “PBM E-score” value: 0.0111 for the first, -0.107 for the second.

Compared with CCGTGCTA, ACTCAGCC is lower in “PBM E-score” value: -0.168 for the first, -0.208 for the second.

Compared with CCATAGGC, ACGAGCTG is higher in “PBM E-score” value: -0.0525 for the first, 0.00917 for the second.

First: CTTCTGAC
Second: CAAGCGCA
The “PBM E-score” value of the first is lower: -0.1 for the first, -0.0103 for the second.

Going from ACATGAAC to ATCACAGG, the “PBM E-score” value rises from -0.0893 to -0.0511.

Compared with TGCTCCAA, CCACCAAC is higher in “PBM E-score” value: -0.151 for the first, -0.0504 for the second.

Going from TAAAGACA to CGCCTCTC, the “PBM E-score” value falls from -0.0439 to -0.305.

Compared with GAATGCTC, CAGGCTGA is higher in “PBM E-score” value: -0.374 for the first, -0.175 for the second.

First: CTCATAAC
Second: ATGACAAT
The “PBM E-score” value of the first is higher: 0.181 for the first, 0.113 for the second.

First: ACCGGCGT
Second: TCGCTACA
The “PBM E-score” value of the first is higher: 0.0116 for the first, -0.37 for the second.

Compared with ATGAATGC, ACTGCACT is higher in “PBM E-score” value: -0.155 for the first, -0.149 for the second.

Compared with CGCAAAAC, CATGACCG is higher in “PBM E-score” value: 0.0401 for the first, 0.177 for the second.

Going from CTTGAGAC to CACGAATG, the “PBM E-score” value rises from -0.0474 to 0.137.

Compared with ATAGGTAA, ACGCCTTC is lower in “PBM E-score” value: 0.323 for the first, -0.12 for the second.

Going from AGACCTCT to AGACAGCT, the “PBM E-score” value falls from 0.0443 to -0.0493.

Going from AGTTAATA to GCACCCGC, the “PBM E-score” value falls from 0.165 to -0.0934.

First: CTCACCGC
Second: AGGGTGAT
The “PBM E-score” value of the first is lower: -0.0442 for the first, 0.427 for the second.

Going from CGAATCGC to ATCCTGCG, the “PBM E-score” value falls from -0.11 to -0.119.

Compared with TCCTTCCA, CATTATTC is higher in “PBM E-score” value: -0.195 for the first, -0.0242 for the second.

Going from GGGAAGAA to ACACAAGG, the “PBM E-score” value rises from -0.148 to 0.132.

First: ATAGGTCG
Second: ATGCCCAT
The “PBM E-score” value of the first is higher: 0.021 for the first, -0.208 for the second.

First: ACTGCACA
Second: CATCGTCG
The “PBM E-score” value of the first is higher: -0.0828 for the first, -0.171 for the second.

First: CGAAGACC
Second: ATCCCCGG
The “PBM E-score” value of the first is higher: 0.206 for the first, -0.154 for the second.

Going from CTCTTAAG to AGTCGCCA, the “PBM E-score” value falls from 0.134 to -0.224.

Going from CTTTGAGC to ATCGGACG, the “PBM E-score” value falls from -0.0975 to -0.161.

Compared with GGTGAAGA, ACTAGCGG is higher in “PBM E-score” value: -0.0245 for the first, 0.0443 for the second.

First: CAAGGAAA
Second: TAGAGTCA
The “PBM E-score” value of the first is higher: -0.0145 for the first, -0.166 for the second.

First: GTTTTCCA
Second: ATGCTCCC
The “PBM E-score” value of the first is higher: 0.103 for the first, -0.4 for the second.

Going from CGCGACTA to TATGTTAA, the “PBM E-score” value rises from 0.0593 to 0.0706.

First: GGCCCTGA
Second: AATGTCAT
The “PBM E-score” value of the first is lower: -0.137 for the first, -0.0489 for the second.

Compared with AAAAGACT, GACGAGAC is lower in “PBM E-score” value: -0.12 for the first, -0.182 for the second.

Compared with CGCTCTAA, ATACAGCA is lower in “PBM E-score” value: -0.0756 for the first, -0.0997 for the second.

First: TACTTGGA
Second: GTGACGGA
The “PBM E-score” value of the first is higher: 0.113 for the first, -0.142 for the second.

Going from CAGCCGGG to CGCAGGAC, the “PBM E-score” value falls from -0.0325 to -0.0895.

Compared with CATATATG, TAGGGCCA is higher in “PBM E-score” value: 0.00011 for the first, 0.0256 for the second.

Compared with AAAAGTTG, TAGGCTGA is lower in “PBM E-score” value: 0.0566 for the first, -0.249 for the second.

Going from CGCCAATC to CAAACTCA, the “PBM E-score” value rises from -0.11 to 0.00911.

First: ACCGTCAG
Second: CCCACTCG
The “PBM E-score” value of the first is higher: 0.162 for the first, -0.233 for the second.

Going from ACCTTTCC to ATTAGTTC, the “PBM E-score” value falls from 0.107 to 0.00076.

Going from CGAGGGGC to TACGGTGA, the “PBM E-score” value falls from 0.0476 to 0.0364.

Going from AAGGACTA to CTCTGCCC, the “PBM E-score” value falls from -0.117 to -0.243.

Going from GCCAGGGC to AGCGGGCC, the “PBM E-score” value falls from -0.128 to -0.289.

Going from CGCCCTCC to AAGGTTGA, the “PBM E-score” value rises from -0.215 to 0.149.

Going from CCGAACAA to CGTTCACA, the “PBM E-score” value falls from 0.139 to -0.0567.

Going from CTCAGCAG to CACCAGGA, the “PBM E-score” value rises from -0.129 to 0.0532.

Compared with AATCTAGT, AGGGGGAA is lower in “PBM E-score” value: 0.0759 for the first, -0.234 for the second.

Going from ACTTCTTC to AACTACAG, the “PBM E-score” value rises from -0.0766 to 0.155.

First: GAGCAAGC
Second: TCAGAAAA
The “PBM E-score” value of the first is lower: -0.17 for the first, -0.0729 for the second.

Going from CCTGCTGA to CCCCTCTA, the “PBM E-score” value falls from 0.0658 to -0.102.

Compared with AAGGTCAC, CGTATTAC is lower in “PBM E-score” value: 0.417 for the first, 0.0167 for the second.

First: GAGTTTAA
Second: GACCCTAA
The “PBM E-score” value of the first is lower: 0.121 for the first, 0.433 for the second.

Compared with CGCTTGAC, ATTCAGGG is higher in “PBM E-score” value: -0.0888 for the first, 0.144 for the second.

Going from CGCATTGA to CTCTGAAC, the “PBM E-score” value falls from -0.135 to -0.144.

Compared with CGGATGAC, AAAGCTAA is higher in “PBM E-score” value: -0.0532 for the first, 0.0253 for the second.

Compared with GGACCTGA, ATGCAGGG is lower in “PBM E-score” value: -0.0642 for the first, -0.0971 for the second.

Going from CGATCGCA to AGGTCCGC, the “PBM E-score” value falls from 0.116 to -0.027.

Compared with CGCTGGGC, ACAAATAA is higher in “PBM E-score” value: -0.329 for the first, 0.224 for the second.
